The whole screen tested about 48,000 compounds, of which about 120 (0.25%) were called active. Not shown: some 4% with an inconclusive outcome. Calls follow the shape of the dose curve; as a rule, active = well fitted activation curve with a large enough effect; inconclusive = small, poorly fitted or top-dose-only effect, or another doubt; inactive = no such curve, though single readings can be large or run the other way. This is one part of the list.
Test: Primary qHTS for Identification of Small Molecule Activators of Huntingtin-Antisense Promoter Activity; also: nearly all actives have a fitted effect of over 55% in size
Conditions: HEK293 HTT-AS promoter firefly luciferase reporter, 24 h; series mostly up to 57.5 µM; activity change, positive = activation: at the top concentration
In short: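 Quantitative HTS used concentration series of up to 57.5 uM final on HEK293 luciferase reporter cells, 24 h at 37 degrees C. Readout was Dual-Glo firefly luminescence.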

Activity change, positive = activation, inactive:
CCOc1ccccc1NC(=O)C1CCN(S(=O)(=O)c2ccc3[nH]c(=O)ccc3c2)CC1 -22.3%
Cc1ccn2c(=O)cc(COc3ccc(NC(=O)COc4ccccc4)cc3)nc2c1 -1.55%
Cc1ccc(S(=O)(=O)N2CCN(Cc3cc(Br)ccc3O)CC2)cc1 -27.4%
CCC(=O)N1CCc2cc(Br)cc(S(=O)(=O)N3CCCC(C(=O)NCc4ccc(F)cc4)C3)c21 (stereo unspecified) -16.2%
Cn1cc(S(=O)(=O)N2CCCCCC2)cc1C(=O)N1CCN(c2cccc(C(F)(F)F)c2)CC1 -39.3%
N#Cc1ccccc1NC(=O)C(=O)NCCc1csc(-c2ccc(C(F)(F)F)cc2)n1 -5.15%
O=C1CSC2(C(=O)N(Cc3ccccc3)c3ccccc32)N1c1cccc(F)c1 (stereo unspecified) -33.8%
CCc1ccc(NC(=O)COC(=O)CCCC2=NS(=O)(=O)c3ccccc3N2)cc1 -10.4%
Cc1cc(C)c(NC(=O)CSc2nc3ccccc3c3nc(CCn4cncc4C)nn23)c(C)c1 -35%
O=S(=O)(c1ccc(Cl)cc1)c1nc(-c2ccccc2Br)oc1NCc1ccccc1 -9.81%
COc1ccc(CCNC(=O)CSc2nc3nc(C)c(Cc4ccc(C)cc4)c(C)n3n2)cc1OC -38.6%
CCN1CCN(C(=O)c2ccc3c(c2)N(Cc2cccc(Cl)c2)C(=O)c2ccccc2S3=O)CC1 (stereo unspecified) -3.22%
Cc1ccc(C)c(OCCn2c(C3CC(=O)N(Cc4ccc(F)cc4)C3)nc3ccccc32)c1 (stereo unspecified) -42.9%
CCN(CC)CCCNc1cc(-c2ccccc2)nc(C)n1 -5.12%
CCOc1ccc2nc(N3CCN(C(=O)c4ccc(S(=O)(=O)CC)cc4)CC3)sc2c1 -30.7%
Cc1ccc(/C=C/C(=O)Nc2nc(-c3cccs3)ns2)cc1 -18.6%
COc1ccc(-n2cc(C(=O)N(CCN(C)C)Cc3ccccc3)c3ccccc3c2=O)cc1 -9.79%
COc1cc(C(=O)N(Cc2ccc(F)cc2)Cc2ccco2)cc(OC)c1OC -26.1%
C=C(CC)C(=O)c1ccc(OCC(=O)O)c(Cl)c1Cl -42.1%
CCn1c(C)c(C)c2cc(C(=O)NCCCN3CCCCC3C)ccc21 (stereo unspecified) -0.828%
COc1ccc(CNC(=O)CS(=O)Cc2nc(-c3ccc(OC)c(OC)c3)oc2C)cc1 (stereo unspecified) -4.9%
COc1ccc(Cn2c(=O)[nH]c3cc(C(=O)NCCC(C)C)ccc3c2=O)cc1 -2.29%
Cc1ccc(N(CC(=O)Nc2cccc(Cl)c2C)S(=O)(=O)c2c(C)noc2C)cc1 -27.6%
COc1cc(OC)cc(C(=O)Nc2cc(-c3nc4ccccc4[nH]3)ccc2C)c1 -20.4%
COC(=O)c1c(SC)nc2ccccc2c1OCc1ccc(Br)cc1 -23.7%
CCOC(=O)C1CCCN(c2nc3c(S(=O)(=O)c4ccc(Br)cc4)nnn3c3ccsc23)C1 (stereo unspecified) -5.94%
CCOC(=O)CN1CCCC1=O -4.05%
OC[C@H]1O[C@@H](O[C@@H]2[C@@H](CO)O[C@](O)(CO)[C@H]2O)[C@H](O)[C@@H](O)[C@H]1O -4.29%
Cc1ccccc1CNC(=O)c1nn(-c2ccccc2F)nc1CO -25.2%
O=c1c2sccc2n(Cc2cc(=O)n3ccccc3n2)c(=O)n1-c1cc(F)ccc1F -19%
CCn1nc(-c2ccccc2)c(-c2ccccc2)c(C(=O)Nc2ccc(S(N)(=O)=O)cc2)c1=O -13.3%
COc1cccc2c1Oc1ncccc1N(C(=O)CCC(=O)NCCC(C)C)C2 -6.76%
COc1ccc(C(=O)Nc2ccc(-c3nnc4n3CCCCC4)cc2)cc1 -19.2%
COc1ccc(-c2n[nH]c3c2C(c2ccc(Cl)cc2Cl)NC3=O)cc1 (stereo unspecified) -40.9%
CCN(CCCNC(=O)c1ccc(Sc2ccc(C)cc2)c(NC(C)=O)c1)c1cccc(C)c1 -31.2%
COc1ccc(-n2c(=O)c3c(c4cc(OC)ccc4n3C)n(CC(=O)NCC3CCCO3)c2=O)cc1 (stereo unspecified) -21.4%
COc1ccc(NC(=O)Cn2c(=O)n(-c3cccc(C)c3)c(=O)c3c2c2cc(C)ccc2n3C)cc1OC -8.34%
CCOc1cccc(C(=O)Nc2ccc3oc(-c4ccc(C(C)(C)C)cc4)nc3c2)c1 -31.3%
Cc1ccc2oc(-c3ccc(C)c(NC(=O)c4ccc5c(c4)OCCO5)c3)nc2c1 -1.11%
CC(CCO)Nc1nc2c(c(=O)n(C)c(=O)n2C)n1Cc1ccc(Br)cc1 (stereo unspecified) -3.41% [at 11.5 µM, percent change from vehicle, -100% = no light]
C#CCSc1nc2sc3c(c2c(=O)n1-c1cccc(OC)c1)CCN(C(C)=O)C3 -30.5%
COc1cc(Cl)c(NC(=O)c2cc(S(=O)(=O)N3CCOCC3)cn2C)c(OC)c1 -13.7%
CCOC(=O)c1ccc(-c2ccc(/C=C(\C#N)C(=O)Nc3c(C)cccc3Cl)o2)cc1 -8.53%
O=S(=O)(NCc1ccc(F)cc1)c1ccc2[nH]c3c(c2c1)CCCCC3 -34%
CCOC(=O)c1nc(Nc2ccc(OC)cc2)c2ccccc2n1 5.45%
Cc1ccccc1Nc1c(-c2cccc(O)c2)nc2ccc(Br)cn12 -19.7%
CC(C)CCNC(=O)c1ccc(Cn2c(=O)c3cccn3c3cccnc32)cc1 -20%
Cc1ccc(-c2nn(-c3cccc([N+](=O)[O-])c3)c3c2cnc2ccc(F)cc23)cc1 -7.86%
Cc1cccc(Nc2nc(Nc3cccc(C)c3)nc(N3CCOCC3)n2)c1 -29.5%
Cc1cc2c(n1-c1ccc(C(=O)NCC(C)c3ccccc3)cc1)CCCC2 (stereo unspecified) 8.71%
CCOc1ccc(CNC(=O)c2ccc3c(c2)sc2nc(-c4ccc(OC)cc4)cn23)cc1 -23%
COc1cc(OC)c(NC(=O)CSC2=Nc3ccccc3N=C(c3ccc(F)cc3)C2)cc1Cl -17.5%
Cc1ccc(CNC(=O)c2cc(S(=O)(=O)N3CCCC(C)C3)cn2C)cc1 (stereo unspecified) -29.3%
Cc1sc(C2C(C#N)=C(N)N(c3cccc(Cl)c3)C3=C2C(=O)CCC3)cc1CN1CCOCC1 (stereo unspecified) -17.1%
O=C(CCC1N=C2c3ccccc3N=C(SCc3ccccc3Cl)N2C1=O)NCc1cccs1 (stereo unspecified) -23.3%
O=C(NCc1ccccc1F)C(=O)NCC(c1cccs1)S(=O)(=O)c1cccs1 (stereo unspecified) -28%
CC(C)Cc1ccc(S(=O)(=O)Nc2ccc3[nH]c(=O)[nH]c3c2)cc1 -34.2%
CCOc1ccc(OCC)c(NC(=O)c2cnc3c(-c4ccccc4)c(C)nn3c2C)c1 -4.53%
COC(=O)c1cc2oc(C)cc2n1Cc1cccc(Cl)c1 0.687%
Cc1ccc(-n2c(=O)c3c(c4cc(C)ccc4n3C)n(CC(=O)NCCC3=CCCCC3)c2=O)cc1 -11.8%
O=c1c2oc3ccccc3c2n(Cc2cccc(Cl)c2)c(=O)n1Cc1ccc2c(c1)OCO2 -27.2%
COc1ccccc1OCC(=O)NCC1(N2CCOCC2)CCCCC1 -10%
O=C(NCc1cccc(Cl)c1)c1ccc(CS(=O)Cc2ccccc2Cl)o1 (stereo unspecified) -27.4%
CC(C)(C)NC(=O)Cn1cc(S(=O)(=O)Cc2ccc(F)cc2)c2ccccc21 -13.7%
CCCOc1ccc(-c2nonc2NC(=O)COc2ccc(C)cc2)cc1OCCC 10.7%
COCCn1c(SCC(=O)c2ccc(OC)cc2)nc2cc(C(=O)NC3CCCC3)ccc2c1=O 3.91%
CC(=O)c1c(C)oc2c(Cl)cc(NS(=O)(=O)c3cc(C)c(C)cc3C)cc12 14.9% [at 11.5 µM, percent change from vehicle, -100% = no light]
CCOC(=O)CNC(c1ccccc1)c1cc(Br)ccc1NC(=O)c1ccc(Cl)cc1 (stereo unspecified) 5.03% [at 11.5 µM, percent change from vehicle, -100% = no light]
Cc1ccc(S(=O)(=O)c2nnn(CC(=O)Nc3ccccc3C)c2N)cc1C -9.18%
CCC(=O)Nc1ccc2nc(SCCOc3cccc(C)c3)sc2c1 -29.9%
Cc1ccn2c(=O)c(C(=O)Nc3ccc(F)c(C(F)(F)F)c3)cnc2c1 23.7%
O=C(Cn1cc(S(=O)(=O)c2ccc(F)cc2)c(=O)c2cc3c(cc21)OCO3)Nc1ccccc1 -18.7%
Cc1oc(-c2ccccc2F)nc1CN1CCC(C(=O)NCCc2ccc(Cl)cc2)CC1 -24.9%
CCOC(=O)c1cc(=O)c2c(OCC(COc3cccc4oc(C(=O)OCC)cc(=O)c34)OC(=O)[C@@H](N)CCCCN)cccc2o1 -2.85%
Cc1cccc(NC(=O)C(=O)NCC(c2cccnc2)N2CCc3ccccc32)c1C (stereo unspecified) -20.7%
CCOc1ccc(-c2nonc2NC(=O)c2oc3ccc(Cl)cc3c2C)cc1 -14.9%
COc1cccc(NC(=O)c2oc3ccccc3c2NC(=O)COc2ccccc2C)c1 26.2%
COC(=O)c1ccccc1NC(=O)CCCn1nc(C)c2sc3ccccc3c2c1=O -5.31%
COc1ccc(-c2nnn3c2nc(NCc2ccccc2)c2ccccc23)cc1 18.8%
CC1=C(C(=O)Nc2ccc(C)cc2C)C(CC(C)C)n2nc(SCc3ccccc3C)nc2N1 (stereo unspecified) -4.97%
O=c1oc2c(F)cc(F)cc2cc1S(=O)(=O)c1ccc(F)cc1 -58.1%
Cc1nc(C)c(CCNS(=O)(=O)c2ccc(C)c(C)c2)s1 -24.7%
CCOc1ccccc1NC(=O)c1c(NCc2ccc(C)o2)sc2c1CCCCC2 -12.1%
Cc1ccc(Cc2nc3ccccc3nc2SCC(=O)N2CCCCC2)cc1 -29.5%
CCOc1ccc(N(CC)C(=O)c2cc3c(=O)oc4ccccc4c3s2)cc1 -12.7%
CCOc1ccc(CN2CCN(S(=O)(=O)c3ccc(Cl)cc3)CC2)cc1 -5.33%
NC(=O)c1ncn([C@@H]2O[C@H](CO)[C@@H](O)[C@@H]2O)c1N 1.16%
Cn1c(CNc2ccc(C(=N)N)cc2)nc2cc(C(=O)N(CCC(=O)O)c3ccccn3)ccc21 -5.95% [at 25.1 µM, percent change from vehicle, -100% = no light]
CNC1CCCN(c2c(F)cc3c(=O)c(C(=O)O)cn(C4CC4)c3c2OC)C1 (stereo unspecified)
COc1ccc(C)cc1NC(=O)c1ccc2c(c1)N(Cc1cccc(Cl)c1)C(=O)c1ccccc1S2=O (stereo unspecified) -2.09%
Cc1ccc(C)c(NC(=O)c2ccc(=O)n(Cc3ccc(F)cc3)c2)c1 -35.1%

— PubChem BioAssay AID1508624 (National Center for Advancing Translational Sciences (NCATS), 2021)
